Data reported in the supplement of paper PMC10369915.
The list shows a part of the results. No stated cut-off is given here; in the data, active = 3.2 or more and inactive = the rest. Most of these values are background signal.

Experiments:
Experiment in all cases: enrichment score (SH2-bound / input frequency) (ratio); bacterial display of known human phosphotyrosine sites (pTyr-Var adds point mutants) read by sequencing; higher = stronger binding; tyrosines were phosphorylated by kinases first
Details in all cases: peptide library: pTyr-Var
[1] = target: SHP2 C-SH2 domain E139D
[2] = target: SHP2 C-SH2 domain wild-type
[3] = target: SHP2 N-SH2 domain L43F
[4] = target: SHP2 N-SH2 domain T42A
[5] = target: SHP2 N-SH2 domain T52S
[6] = target: SHP2 N-SH2 domain wild-type

Measured: enrichment score
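Further: displayed peptides selected on beads carrying the immobilized SH2 domain, with library peptides lacking any tyrosine serving as negative controls.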

SEDSEYYRAFE [CASQ2_Y178_K180R]
inactive: [1] 0.747 | [2] 0.73 | [3] 0.509 | [4] 0.552 | [5] 0.604 | [6] 0.695

EQYELYCEMGS [CBL_Y371]
inactive: [1] 0.852 | [2] 0.888 | [3] 0.895 | [4] 0.888 | [5] 0.689 | [6] 1.05

EDSEFYRAFEE [CASQ2_Y179_K180R_YF]
inactive: [1] 0.407 | [2] 0.384 | [3] 0.576 | [4] 0.49 | [5] 0.525 | [6] 0.476

EDSEYYRAFEE [CASQ2_Y179_K180R]
inactive: [1] 0.416 | [2] 0.742 | [3] 0.478 | [4] 0.383 | [5] 0.666 | [6] 0.81

EAVSIYQFHGQ [CBLC_Y402]
inactive: [1] 1.12 | [2] 0.738 | [3] 0.99 | [4] 0.849 | [5] 0.964 | [6] 0.697

TGHKGYVAFLE [CARD9_Y76]
inactive: [1] 0.966 | [2] 0.93 | [3] 1.04 | [4] 0.748 | [5] 0.783 | [6] 0.817

IMAYFYMCDSA [CASD1_Y382_R386S]
inactive: [1] 2.81 | [2] 2.57 | [3] 2.67 | [4] 2.48 | [5] 2.23 | [6] 2.86

LDFPEYNGVDR [CASQ1_Y43_D44N]
inactive: [1] 0.613 | [2] 0.663 | [3] 0.645 | [4] 0.627 | [5] 0.704 | [6] 0.793

QFKDKYLAKHN [CASK_Y712_YF]
inactive: [1] 0.845 | [2] 1.11 | [3] 0.675 | [4] 3.12 | [5] 1.16 | [6] 1.5

KVGNGYISAAE [CALM2_Y100_D96V]
inactive: [1] 0.884 | [2] 0.592 | [3] 0.647 | [4] 0.737 | [5] 0.672 | [6] 0.976

IKAGAYDFPSL [CAMK2A_Y230_P235L]
inactive: [1] 1.09 | [2] 0.873 | [3] 1.14 | [4] 0.925 | [5] 0.84 | [6] 1.02

HGQVNYEEFVQ [CALM2_Y139_D134H]
inactive: [1] 1.19 | [2] 0.896 | [3] 0.92 | [4] 1.04 | [5] 1 | [6] 1.31

YPSLPYSPVSS [CAMKK2_Y128_C123Y]
inactive: [1] 1.02 | [2] 0.884 | [3] 0.897 | [4] 0.795 | [5] 0.927 | [6] 0.977

KDGNGYISAAE [CALM1_Y100]
inactive: [1] 0.595 | [2] 0.445 | [3] 0.481 | [4] 0.429 | [5] 0.497 | [6] 0.754

FPSLPYSPVSS [CAMKK2_Y128_C123Y_YF]
inactive: [1] 1.09 | [2] 0.997 | [3] 0.833 | [4] 0.937 | [5] 1.16 | [6] 1.02

CPSLPYSPVSS [CAMKK2_Y128]
inactive: [1] 0.792 | [2] 0.723 | [3] 0.678 | [4] 0.689 | [5] 0.762 | [6] 0.9

EQFELYCEMGS [CBL_Y371_YF]
inactive: [1] 0.893 | [2] 1.17 | [3] 1 | [4] 1.05 | [5] 0.736 | [6] 1.31

EDSEYYKAFEE [CASQ2_Y179]
inactive: [1] 0.438 | [2] 0.664 | [3] 0.501 | [4] 0.66 | [5] 0.762 | [6] 0.639

MPIPMYDASQA [CARMIL1_Y637]
inactive: [1] 0.906 | [2] 0.936 | [3] 0.874 | [4] 0.806 | [5] 1.04 | [6] 0.938

VTQEPYELYCE [CBL_Y368_Q367P]
inactive: [1] 0.724 | [2] 0.594 | [3] 0.626 | [4] 0.524 | [5] 0.645 | [6] 0.774

QFKGKYLAKHN [CASK_Y712_D710G_YF]
inactive: [1] 1.12 | [2] 1.01 | [3] 1.04 | [4] 1.03 | [5] 1.3 | [6] 0.908

KTNVSYFGALD [CACNB4_Y103_C104F]
inactive: [1] 0.884 | [2] 0.853 | [3] 0.803 | [4] 0.703 | [5] 0.968 | [6] 0.734

LPPGEYVVVPS [CAPN1_Y494]
inactive: [1] 1.08 | [2] 0.705 | [3] 0.745 | [4] 0.618 | [5] 0.768 | [6] 0.849

EPFELYCEMGS [CBL_Y371_Q367P_YF]
inactive: [1] 0.84 | [2] 0.926 | [3] 0.652 | [4] 0.639 | [5] 0.894 | [6] 0.992

KKKKQYKGKYL [CASK_Y708_D710G]
inactive: [1] 0.332 | [2] 0.255 | [3] 0.324 | [4] 0.29 | [5] 0.382 | [6] 0.297

EEKKKYYDTKI [CASP5_Y103]
inactive: [1] 0.94 | [2] 0.792 | [3] 0.582 | [4] 1.05 | [5] 1.04 | [6] 0.976

DGQVNYEELVQ [CALM1_Y139_F142L]
inactive: [1] 0.461 | [2] 0.719 | [3] 0.592 | [4] 0.513 | [5] 0.657 | [6] 0.652

EEKKKYFDTKI [CASP5_Y103_YF]
inactive: [1] 0.753 | [2] 0.746 | [3] 0.689 | [4] 0.591 | [5] 0.763 | [6] 0.621

LDFPEYDGVDR [CASQ1_Y43]
inactive: [1] 0.763 | [2] 0.823 | [3] 0.93 | [4] 0.496 | [5] 0.85 | [6] 0.815

ARVANYQRDGP [CAT_Y386]
inactive: [1] 0.265 | [2] 0.391 | [3] 0.332 | [4] 0.306 | [5] 0.174 | [6] 0.309

DGPVNYEEFVQ [CALM2_Y139_Q136P]
inactive: [1] 0.631 | [2] 0.667 | [3] 0.585 | [4] 0.732 | [5] 0.624 | [6] 0.845

VKMLEYRGKDV [CASP5_Y74_L75R]
inactive: [1] 0.663 | [2] 0.907 | [3] 1.03 | [4] 0.812 | [5] 0.929 | [6] 0.822

KKKKQYKDKFL [CASK_Y708_YF]
inactive: [1] 0.362 | [2] 0.426 | [3] 0.3 | [4] 0.355 | [5] 0.357 | [6] 0.348

EAVSIYQFYGQ [CBLC_Y402_H405Y]
inactive: [1] 1.18 | [2] 1.11 | [3] 0.974 | [4] 0.966 | [5] 1.05 | [6] 1.12

SEDSEYYKAFE [CASQ2_Y178]
inactive: [1] 0.521 | [2] 0.698 | [3] 0.606 | [4] 0.595 | [5] 0.521 | [6] 0.899

EKKKFYDAKIE [CASP5_Y104_T106A_YF]
inactive: [1] 0.608 | [2] 0.975 | [3] 0.744 | [4] 0.853 | [5] 0.766 | [6] 0.784

LPPREYVVVPS [CAPN1_Y494_G492R]
inactive: [1] 0.748 | [2] 0.9 | [3] 0.862 | [4] 0.516 | [5] 0.52 | [6] 0.735
